Test results published in PubChem BioAssay AID445 (National Center for Advancing Translational Sciences (NCATS), 2006).
Where “and” joins values, the source holds several entries; their conditions need not be identical. Identical values can stand only once. In all, about 110,000 compounds went through this assay and about 40 (0.04%) were called active. Inconclusive results, whose numbers are uncertain, are shown with a selection of clear calls. Calls come from the whole dose curve; as a rule, active = well fitted curve in the direction sought with a large enough effect in the signal ratio (not every such curve was filed as active); inconclusive = small, poorly fitted or top-dose-only effect, or a change in a side signal; inactive = flat fitted curve, though single readings scatter; the % refers to the signal ratio. A potency beside an inconclusive call is a rough fit, not a confirmed value.

assay: IkB Signaling; settings: ABC-DLBCL IkBa-CBG/CBR dual luciferase ratio (green luciferase fused to IkBa over red control in OCI-Ly3 lymphoma cells), 4 h; IkBa stabilization activation: at 57.1 µM (top of the series), scaled: untreated 0%, proteasome inhibitor 100% unless noted;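 for IkBa stabilization activation: 0% = basal untreated cells and 100% = reference inhibitor full response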
Procedure, shortened: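 Luminescence ratio of IκBα-fused green versus native red beetle luciferase in OCI-Ly3 cells, 4 h post-doxycycline with compound; red signal alone, scaled from basal (0%) to zero light (-100%), flagged nonspecific or cytotoxic effects.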
Potency is the fitted concentration of half-maximal effect.

Row | Structure (SMILES) | IkBa stabilization activation | Potency
1 | CCNc1nc2c(c(=O)n(C)c(=O)n2C)n1Cc1ccc(F)cc1 | inconclusive: -2.66% [signal inhibitor] | 
2 | Cc1ccc(CSC2=NC(C)(C)Nc3ccccc32)c(C)c1 | inconclusive: -1.19% [signal inhibitor] | 
3 | COc1ccc(-c2csc3ncnc(Nc4ccccc4)c23)cc1 | inconclusive: -2.49% [signal inhibitor] | 
4 | CN(Cc1ccccc1)C(=O)CN(C1CCCCC1)S(C)(=O)=O | inactive: -2.33% | 
5 | COC(=O)C1=C(C)NC(C)=C(C(=O)OCCCN2CCC(c3ccccc3)(c3ccccc3)CC2)[C@H]1c1cccc([N+](=O)[O-])c1 | inconclusive: 0.583% [signal inhibitor] and inconclusive: 1.55% [signal inhibitor] | 
6 | Fc1cccc(CN2CCc3nc(Nc4ccc5c(c4)OCCO5)ncc3C2)c1F | inconclusive: 6.55% [signal inhibitor] | 
7 | COc1ccc(-c2noc(N3CCC(C(=O)N4CCN(c5cccc(OC)c5)CC4)CC3)n2)cc1 | inconclusive: 7.57% [signal inhibitor] | 
8 | COC(=O)c1[nH]c2ccc(C)cc2c1NC(=O)CN1CCN(Cc2ccccc2)CC1 | inconclusive: 0.585% [signal inhibitor] | 
9 | COc1ccc(NC(=O)Cn2cc(C(=O)c3ccc(C)c(C)c3)c(=O)c3cc(OC)ccc32)cc1 | inconclusive: 1.54% [signal inhibitor] | 
10 | Cc1ccc(-n2ncc(C(=O)N3CCN(c4ccccc4F)CC3)c2C2CCN(C(=O)OC(C)(C)C)CC2)cc1C | inconclusive: 1.5% [signal inhibitor] | 
11 | CCOc1ccc(CNC(=O)c2ccc(NC(=O)N3CCCCc4ccccc43)cc2)cc1 | inconclusive: 2.19% [signal inhibitor] | 
12 | Cc1c(NC(=O)Cc2ccc(Cl)cc2)cccc1-c1nc2cccnc2s1 | inconclusive: 1.62% [signal inhibitor] | 
13 | CCOC(=O)c1c(C)[nH]c(C)c1S(=O)(=O)NCC(=O)Nc1cccc(Cl)c1 | inconclusive: -1.48% [signal inhibitor] | 
14 | Cc1cccc(CNC(=O)Cn2nc(C)c3nn(-c4ccc(Cl)cc4)c(C)c3c2=O)c1 | inconclusive: -3.86% [signal inhibitor] | 
15 | CCCc1nc2ccccc2n2cc3c(=O)n(C)c(=O)n(C)c3c12 | inactive: 2.07% | 
16 | Cc1c(CNC2CCCCCC2)c(C(=O)O)c(C)n1Cc1cccc(Cl)c1 | inconclusive: 4.04% [signal inhibitor] | 
17 | Cc1ccccc1Nc1c(-c2c[nH]c3ccccc23)nc2ccc(Cl)cn12 |  | inconclusive: 20 µM [signal inhibitor, partial curve]
18 | Cc1ccc(Cl)c(Nc2ccccc2C(=O)O)c1Cl | inconclusive: 9.05% [signal activator] | 
19 | CCOC(=O)c1ccc(N2C(=O)c3n[nH]c(-c4ccco4)c3C2c2ccccc2OC)cc1 (centres undefined) | inconclusive: -0.319% [signal inhibitor] | 
20 | COc1ccc(-c2cc(C(=O)NCc3cccnc3)no2)cc1OC |  | inconclusive: 7.94 µM [signal inhibitor, partial curve]
21 | O=C(Nc1ccc(Cl)cn1)C1CCCN1S(=O)(=O)c1ccc(Cl)cc1 (centres undefined) | inactive: 1.31% | 
22 | Cc1ccc(-c2nnc(N3CCN(S(C)(=O)=O)CC3)c3ccccc23)cc1 | inactive: -0.818% | 

Row | Structure (SMILES) | IkBa stabilization activation | Potency
23 | CCCn1c(N)c(C(=O)CSc2nnc(-c3ccco3)n2Cc2ccccc2)c(=O)[nH]c1=O | inactive: 0.429% | 
24 | CCOc1ccc2c(c1)c(=O)c(C(=O)c1ccc(CC)cc1)cn2CC(=O)Nc1ccc2c(c1)OCCO2 | inconclusive: 5.86% [signal inhibitor] | 
25 | O=C(CSc1nnnn1Cc1ccccc1)Nc1ccc2c(c1)OCCO2 | inactive: -0.0394% | 
26 | CC(=O)Nc1ccc2nc(-c3cccs3)[nH]c2c1 | inactive: 4.05% | 
27 | COc1ccc(Cl)cc1NC(=O)Cn1c(=O)n2nc(-c3ccccc3)nc2c2ccccc21 | inconclusive: 4.76% [signal inhibitor] | 
28 | COc1ccc(C)c2sc(N(Cc3cccnc3)C(=O)c3cccs3)nc12 | inconclusive: 1.61% [signal inhibitor] | 
29 | Cc1ccc(NC(=O)Cn2cc3c(n2)CCCC3)cc1Cl | inactive: -1.46% | 
30 | COC(=O)c1c(C)oc2ccc(N(C(=O)c3ccncc3)S(=O)(=O)c3ccc(Br)cc3)cc12 | inconclusive: -5.28% [signal inhibitor] | 
31 | O=C(Nc1cccc(F)c1)c1cnc2sc(N3CCCC3)nn2c1=O |  | inconclusive: 20 µM [signal inhibitor, partial curve]
32 | COCCN1C(=O)c2ccc(C(=O)Nc3nccs3)cc2C1=O | inactive: -0.351% | 
33 | CCCCCNC(=O)c1ccc2c(=O)n(CC3CCCO3)c(=O)[nH]c2c1 (centres undefined) | inconclusive: -0.13% [signal inhibitor] | 
34 | CCC1CN(C(=O)NCc2ccc(F)cc2)c2cc(C)ccc2O1 (centres undefined) | inconclusive: 1.7% [signal inhibitor] | 
35 | CC(=O)COc1ccc2c3c(c(=O)oc2c1C)CCCCC3 | inactive: -2.88% | 
36 | CCc1cccc2c3c([nH]c12)[C@](CC)(CC(=O)O)OCC3 |  | inconclusive: 15.8 µM [rising, partial curve]
37 | COc1cccc(C(c2sc3nc(-c4ccco4)nn3c2O)N2CCC(C)CC2)c1 (centres undefined) | inactive: 0.48% | 
38 | CCCn1c(=O)c2c(ncn2C)n(CCC)c1=O | inactive: -6.61% | 
39 | Cc1cccc2c(=O)cc(CSc3ccccc3NC(=O)c3cccc(Cl)c3)[nH]c12 | inactive: -1.02% | 
40 | CCCCn1cc2c(c1-c1ccc(Br)cc1)c(=O)n(C)c(=O)n2C | inconclusive: 0.439% [signal inhibitor] | 
41 | CN(C)c1ncc2nc(-c3cccs3)c(=O)n(C[C@H]3CCCO3)c2n1 | inactive: 1.89% [at 11.4 µM, scaled: untreated 0%, proteasome inhibitor 100%] | 
42 | Cc1cccc(C(=O)NCCc2nc3ccccc3n2CCC(C)C)c1 | inconclusive: 3.62% [signal inhibitor] | 
43 | CCOc1ccc(OCC)c(NC(=O)c2cnn(-c3ccc(F)cc3)c2-n2cccc2)c1 | inactive: -2.19% | 
44 | CCc1ccc(-n2nc(C)c3c(C)cc(=O)n(CC(=O)Nc4cc(Cl)ccc4OC)c32)cc1 | inconclusive: -0.884% [signal inhibitor] | 
